Measurements reported in PubChem BioAssay AID651820 (National Center for Advancing Translational Sciences (NCATS), 2012).
Screen size: about 340,000 compounds; about 12,000 (3.5%) were called active. The inconclusive results got no clear call from the source; some entries with a clear call stand among them for comparison. Calls follow the shape of the dose curve; as a rule, active = well fitted inhibition curve with a large enough effect; inconclusive = small, poorly fitted or top-dose-only effect, or another doubt; inactive = no such curve, though single readings can be large or run the other way. Potencies of inconclusive entries are left out as doubtful fits.

Assay: qHTS Assay for Inhibitors of Hepatitis C Virus (HCV)
Settings: Huh7.5.1 HCVcc-Cre (HCVcc is cell-culture hepatitis C virus) infection, luciferase reporter, 44 h; activity change, negative = inhibition: at 41.8 µM (top of the series) unless noted
Outline: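 Cells (1,000/well) were plated 4 h before compound, then infected with HCVcc-Cre virus (~0.5 moi). After 44 h further culture, infection was read as luciferase luminescence following a 15 min substrate incubation at room temperature.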
% is scaled to controls: 0 for no effect and ±100 for the full control effect; potency is read from the fitted curve at half-maximal effect; tags tell the direction and shape of the fitted curve.

SMILES | Potency | activity change, negative = inhibition
O=C(NCc1cccs1)c1cccnc1SCCS(=O)(=O)c1ccc(C(F)(F)F)cn1 | inconclusive [inhibitor, partial curve] | 
CCOc1ccc(Nc2oc(Cc3ccccc3)nc2C#N)cc1 | inconclusive [inhibitor, partial curve] | 
CCC(=O)NC(=S)Nc1ccc(NC(=O)c2ccc([N+](=O)[O-])cc2)cc1 | inconclusive [inhibitor, full curve, poor fit] | 
CCCCN(CC)S(=O)(=O)c1ccc(C(=O)N(CCCN(C)C)c2nc3cc(C)cc(C)c3s2)cc1 | inconclusive [inhibitor, partial curve] | 
Cn1c(=O)c2c(nc(-c3ccc(N(CCCl)CCCl)cc3)n2C)n(C)c1=O | inconclusive [inhibitor, partial curve] | 
CCOP(=S)(OCC)Oc1ccc2c(C)c(Cl)c(=O)oc2c1 | inconclusive [inhibitor, single point] | 
CCOC(=O)Cc1c(C)c2c(C)nn(-c3ccccc3)c2oc1=O | inconclusive [inhibitor, single point] | 
CCOC(CCn1c(SCc2cccc([N+](=O)[O-])c2)nc2ccccc2c1=O)OCC | inconclusive [inhibitor, single point] | 
CCN(CC)S(=O)(=O)c1cc(C(=O)Nc2ccncc2)ccc1Cl | inconclusive [inhibitor, single point] | 
COc1ccc(-c2c(-c3ccccc3)c(C(=O)C(=O)NCCCN(C)C)n3ccc4cc(OC)c(OC)cc4c23)cc1OC | inconclusive [inhibitor, single point] | 
O=S1(=O)N=CN(Cc2cccc(F)c2)c2ccccc21 | inactive | 
Cc1c(CN2CCC(CO)(CCOc3ccccc3)CC2)[nH]c2ccc(Cl)cc12 | inconclusive [inhibitor, single point] | 
Cc1ccc(F)cc1NCC(=O)Nc1ccc(Cl)cc1F | inconclusive [inhibitor, single point] | 
CCc1ccc(C(O)(CC(C)C)C(CN2CCOCC2)c2ccccc2)cc1 (configuration not stated) | inconclusive [inhibitor, single point] | 
COc1ccc(Cl)cc1NC(=O)c1noc(C)c1[N+](=O)[O-] | inconclusive [inhibitor, single point] | 
CN(C)c1ccc(/C=C/C=C2/C(=O)NC(=O)N(c3ccccc3)C2=O)cc1 | inconclusive [inhibitor, single point] | 
COc1ccc(NC(=O)c2cc([N+](=O)[O-])ccc2N2CCCCC2)cc1 | inconclusive [inhibitor, partial curve] | 
Fc1ccc(-n2c(=S)[nH]c3cccnc32)cc1 | inactive | 
CC1CCc2[nH]c3ccc(C(=O)NCCCOC(C)C)cc3c2C1 (configuration not stated) | active: 10 µM | 
C=CCNc1oc(-c2cccs2)nc1S(=O)(=O)c1ccccc1 | inactive | 
Cc1sc(=NC(=O)c2ccco2)n(C)c1-c1ccccc1 | inconclusive [inhibitor, single point] | 
COc1ccc(-n2nnnc2SCC(=O)Nc2c(C)n[nH]c2C)cc1 | inconclusive [inhibitor, single point] | 
CCOc1ccc2nc(SCC(=O)NCc3ccco3)sc2c1 | inconclusive [inhibitor, single point] | 

SMILES | Potency | activity change, negative = inhibition
COc1ccc(-c2cc(C(=O)Nc3cc(OC)c(OC)c(OC)c3)no2)cc1OC | inconclusive [inhibitor, full curve, poor fit] | 
CO/N=C(/CS(=O)(=O)c1ccc(C)cc1)c1ccc(OC)cc1 | inactive | 
CCN1CCN(c2cc(C)c3cc(NC(=S)NCCCN4CCc5ccccc5C4)ccc3n2)CC1 | active: 8.91 µM | 
COc1ccc(CN2CCN(c3ccccn3)CC2)cc1OCc1ccccc1 | inconclusive [inhibitor, partial curve] | 
COc1ccc(-c2cccc(NS(=O)(=O)c3cc([N+](=O)[O-])ccc3Cl)c2)nn1 | inactive | 
Cc1[nH]n(-c2ncc(-c3ccccc3)s2)c(=O)c1C(c1ccc(Br)cc1)C(C#N)C#N (configuration not stated) | inactive | 
Cc1ccc(CN(C)C(=O)c2cccc(S(=O)(=O)N3CCc4ccccc4C3)c2)o1 | inconclusive [inhibitor, single point] | 
Nc1c(Cl)cc(C2=NCCn3nc4ccccc4c32)cc1Cl | inconclusive [inhibitor, single point] | 
CCc1ccc(OCCCC(=O)Nc2nccs2)cc1 | inconclusive [inhibitor, single point] | 
C=C(C)C(=O)N1CC2(CC(c3cccc(NC(=O)CCCCC)c3)=NO2)C[C@H]1C(N)=O (some centres not stated) | inconclusive [inhibitor, single point] | 
Cc1noc(C)c1COC(=O)c1ccccc1NC(=O)c1ccco1 | inconclusive [inhibitor, partial curve] | 
CN1CCN(C(CNS(=O)(=O)c2ccc(Br)cc2)c2ccc3c(c2)OCO3)CC1 (configuration not stated) | inconclusive [inhibitor, partial curve] | 
Cc1c(Cl)cnc(NC(=O)COC(=O)c2ccc3c(c2)OCO3)c1Cl | inconclusive [inhibitor, single point] | 
CC(=O)N1CCN(Cc2nc3cc(NC(=O)c4ccc(Cl)cc4)ccc3n2C)CC1 | active: 3.55 µM | 
CCOC(=O)CCc1nc2ccccc2[nH]c1=O | inactive | 
Cc1ccccc1-c1noc(-c2ccccc2C(=O)NCc2ccco2)n1 | inconclusive [inhibitor, single point] | 
COC(=O)Nc1ccc(S(=O)(=O)Nc2ccc(O)cc2)cc1 | inconclusive [inhibitor, single point] | 
COC(=O)CCn1nnc(-c2cccs2)n1 | inactive | 
O=C(CSc1nc(-c2ccco2)cc(C(F)(F)F)n1)N1CCN(c2ccc(Cl)cc2)CC1 | inconclusive [inhibitor, full curve] | 
CCOC(=O)c1sc(C)c(C(=O)NCCCN2CCOCC2)c1N | inconclusive [inhibitor, single point] | 
CN1CCN(CC(=O)Nc2nc(-c3ccccc3)cs2)CC1 | inactive | 
O=C(C[n+]1cc(Br)cc2ccccc21)c1ccccc1 | inactive | 
O=C(/C=C/c1ccc(F)cc1)c1ccc(N2CCOCC2)cc1 | inactive | 

SMILES | Potency | activity change, negative = inhibition
O=C(OCCN1CCCCC1)c1cccc(F)c1 | inactive | 
CCC1Sc2ccccc2N(CC(=O)NCc2ccc3c(c2)OCO3)C1=O (configuration not stated) | inconclusive [inhibitor, single point] | 
CC(C)(C)NC(=O)N1CCCN(c2ccc(C(F)(F)F)cn2)CC1 | inconclusive [inhibitor, single point] | 
O=C(Cc1c(F)cccc1Cl)N1CCN(S(=O)(=O)c2cccc(F)c2)CC1 | inactive | 
O=C(c1cc(COc2c(F)cccc2F)on1)N(Cc1ccccc1)CC1CC1 | inconclusive [inhibitor, single point] | 
FC(F)(F)C(F)(F)C(F)(F)c1nnc2ccc(N3CCOCC3)nn12 | inconclusive [inhibitor, full curve, poor fit] | 
COC(=O)[C@@]12CCCCN1[C@H](c1ccc(-c3ccc(C(C)=O)cc3)cc1)[C@@H]1C(=O)N(C)C(=O)[C@@H]12 | inactive | 
Oc1ccc(-c2nc3ccc4ccccc4c3c3c2CCC3)cc1O | inconclusive [inhibitor, single point] | 
NS(=O)(=O)c1ccc2nc(NC(=O)Nc3ccccc3F)sc2c1 | inconclusive [inhibitor, full curve, poor fit] | 
COc1ccc2c(c1)N(C)/C(=C/c1cccc[n+]1C)S2 | active: 3.55 µM | 
O=C(N[C@@H]1C/C=C\C[C@@H](CC(=O)N(CCO)Cc2ccccc2)C(=O)N[C@H](Cc2ccccc2)COC1=O)OCC1c2ccccc2-c2ccccc21 | inconclusive [inhibitor, single point] | 
COc1ccc(OC)c(Nc2cc(C)nc3ccc(C)cc23)c1 | active: 22.4 µM | 
O=C(c1ccc2ncsc2c1)N1CCCC(C(F)(F)F)C1 (configuration not stated) |  | inconclusive: -122% [inhibitor]
NC(=O)COc1c(-c2ccccc2)oc2ccccc2c1=O | inconclusive [inhibitor, partial curve] | 
Cc1c(Cc2ccccc2)c(=O)oc2cc(OC(C)C(=O)NCC3CCC(C(=O)O)CC3)c(Cl)cc12 (configuration not stated) | inconclusive [inhibitor, partial curve] | 
COc1cccc(CNC(=O)c2nnn(CC(=O)Nc3cc(C)ccc3C)c2N)c1 | inconclusive [inhibitor, single point] | 
CCN(c1ccccc1)S(=O)(=O)c1ccc(Cl)c(NC(=O)CSc2ncn[nH]2)c1 | inconclusive [inhibitor, partial curve] | 
Cc1ccc(NC(=S)Nc2ccc(OC(F)F)c(Cl)c2)cc1Cl | inconclusive [inhibitor, single point] | 
COc1ccc(C2C3=C(CCCC3=O)Nc3nc(-c4cc(OC)c(OC)c(OC)c4)nn32)cc1OC (configuration not stated) | inconclusive [inhibitor, full curve] | 
COc1ccc(C(=O)CSc2nnc(-c3cc4ccccc4cc3O)n2Cc2ccco2)cc1 | active: 11.2 µM | 
N=C1C(c2nc3ccccc3s2)=C(O)CN1Cc1ccccc1 | inconclusive [inhibitor, single point] | 
